± gives the standard error. This sample is rich in variants without activity.
B1: glmS ribozyme (parent)
chain: AUAAAAGCGCCAGAACUACAGAAAUGUAGUUGACGAGGAGGAGGUUUAUCGAAUUUUCGGCGGAUGCCUCCAAA

Tests used:
Settings in all cases: with glucosamine-6-phosphate
glucosamine-6-phosphate [1] = variants of: B1; test: self-cleavage kobs at 640 uM GlcN6P; higher = faster cleavage; RNA array
How it was run: (§1)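 Glucosamine-6-phosphate in HEPES/KCl/Mg(OAc)2 buffer, at 40 μM to 10 mM, was flowed over barcoded ribozyme variants transcribed in situ by E. coli RNA polymerase on sequenced MiSeq chips. Tracking was through a hybridised Cy3 probe at 37 °C. kobs, kcat and KM came from exponential decay fits and weighted Michaelis–Menten fits of normalised per-tile medians.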

glucosamine-6-phosphate [2] = variants of: B1; test: self-cleavage kobs at 2500 uM GlcN6P; higher = faster cleavage; RNA array
How it was run: as §1

glucosamine-6-phosphate [3] = variants of: B1; test: self-cleavage kobs at 10000 uM GlcN6P; higher = faster cleavage; RNA array
How it was run: as §1

glucosamine-6-phosphate [4] = variants of: B1; test: self-cleavage kobs at 160 uM GlcN6P; higher = faster cleavage; RNA array
How it was run: as §1

glucosamine-6-phosphate [5] = variants of: B1; test: self-cleavage kobs at 40 uM GlcN6P; higher = faster cleavage; RNA array
How it was run: as §1

Variant | self-cleavage kobs at 640 uM GlcN6P (glucosamine-6-phosphate [1]) [s⁻¹] | self-cleavage kobs at 2500 uM GlcN6P (glucosamine-6-phosphate [2]) [s⁻¹] | self-cleavage kobs at 10000 uM GlcN6P (glucosamine-6-phosphate [3]) [s⁻¹] | self-cleavage kobs at 160 uM GlcN6P (glucosamine-6-phosphate [4]) [s⁻¹] | self-cleavage kobs at 40 uM GlcN6P (glucosamine-6-phosphate [5]) [s⁻¹]
A6G C10G A15G C16U G41U | < 1e-05 | < 1e-05 |  |  | 
G7U C8G | < 1e-05 | < 1e-05 | < 1e-05 |  | 
G9U A42G U46G | < 1e-05 |  |  | < 1e-05 | 
U47C A53U |  |  |  |  | 4.38e-05 ± 9.7e-06
A6C U46C U47C G59A | < 1e-05 |  |  |  | 
G9U C10G C11A | < 1e-05 |  |  |  | 
G9U U31G A36C | < 1e-05 |  | < 1e-05 | < 1e-05 | 
G51U C58A A64U |  |  | < 1e-05 | < 1e-05 | < 1e-05
U49G G63C |  | < 1e-05 | < 1e-05 | < 1e-05 | < 1e-05
C10U A39C U46C | < 1e-05 |  | < 1e-05 |  | 
A6G A14U A33U G43A C50G | < 1e-05 |  |  |  | 
G51C U65C | < 1e-05 |  |  |  | < 1e-05
C8A G9C G29C G35U | < 1e-05 | < 1e-05 |  |  | 
A6U C8G A48U C70G | < 1e-05 |  |  |  | 
G7U A33G U56G | < 1e-05 |  |  |  | 
A6U G13U U46G U47G C61A | < 1e-05 |  |  |  | 
G7A C58U | < 1e-05 | < 1e-05 | < 1e-05 | < 1e-05 | 
G59A G60A | < 1e-05 |  | < 1e-05 | < 1e-05 | < 1e-05
A48G A64C | < 1e-05 | < 1e-05 | < 1e-05 | < 1e-05 | < 1e-05
C10A G13U A15G G40U U46G | < 1e-05 | < 1e-05 |  | < 1e-05 | 
G9A G66U C68G | < 1e-05 | < 1e-05 |  |  | 
A6G G32A G44C | < 1e-05 | < 1e-05 |  | < 1e-05 | 
A52C G62U |  |  | < 1e-05 | < 1e-05 | < 1e-05
A52C G62C |  |  |  |  | < 1e-05
G59A C68A |  |  |  |  | < 1e-05

Variant | self-cleavage kobs at 640 uM GlcN6P (glucosamine-6-phosphate [1]) [s⁻¹] | self-cleavage kobs at 2500 uM GlcN6P (glucosamine-6-phosphate [2]) [s⁻¹] | self-cleavage kobs at 10000 uM GlcN6P (glucosamine-6-phosphate [3]) [s⁻¹] | self-cleavage kobs at 160 uM GlcN6P (glucosamine-6-phosphate [4]) [s⁻¹] | self-cleavage kobs at 40 uM GlcN6P (glucosamine-6-phosphate [5]) [s⁻¹]
A6C G44A G66C | < 1e-05 |  |  |  | 
A6G C11U U56G C61G | < 1e-05 | < 1e-05 |  |  | 
U54G G62C | < 1e-05 | < 1e-05 |  | < 1e-05 | < 1e-05
G9C A48G C67G C68A | 9.72e-05 ± 4.1e-05 |  | 0.000631 ± 0.00016 |  | 
C10A G37U A39U G44U G59U C70G | < 1e-05 | < 1e-05 |  |  | 
U49A G63C | < 1e-05 |  | < 1e-05 |  | < 1e-05
A6G A48G C58U | < 1e-05 |  |  |  | 
C8U A48G G62U | < 1e-05 | < 1e-05 |  |  | 
U54G U55A C70G | 0.000102 ± 1.5e-05 | 0.000157 ± 2.6e-05 | 0.000145 ± 2.6e-05 |  | 6.4e-05 ± 1.6e-05
A6U C10U G32C | < 1e-05 |  |  |  | 
C8U G13U A14U | < 1e-05 |  |  |  | 
G60C U69A |  | < 1e-05 | < 1e-05 | < 1e-05 | < 1e-05
A6U G37C G40A | < 1e-05 | < 1e-05 |  |  | 
U46C G63U C68U |  | < 1e-05 | < 1e-05 | < 1e-05 | < 1e-05
A48C C61A | < 1e-05 |  | < 1e-05 |  | < 1e-05
C61A U65C | < 1e-05 | < 1e-05 |  | < 1e-05 | < 1e-05
G9A A12U U49A | < 1e-05 | < 1e-05 |  |  | 
A6G A14C G32U A33U G38A C67G | < 1e-05 |  |  |  | 
A48U G60C | < 1e-05 | < 1e-05 | < 1e-05 | < 1e-05 | < 1e-05
G9A U69A | < 1e-05 |  | < 1e-05 | < 1e-05 | 
C10U A12U A15G A33C U57G | < 1e-05 |  | < 1e-05 | < 1e-05 | 
U46A C61A |  |  | < 1e-05 | < 1e-05 | < 1e-05
C10G G32A U45C A48U U69C | < 1e-05 |  | < 1e-05 |  | 
A53C C58U |  |  |  | < 1e-05 | < 1e-05
G7U G66A C67U | < 1e-05 | < 1e-05 |  |  | 

— the supplement of paper PMC7125110
